Laboratory results published in ChEMBL document CHEMBL1201862, “PubChem BioAssay data set” (2004).

What follows are compounds tested on NCI-H322M (assay: DTP human tumour cell line panel, 48 h).

| SMILES | GI50 |
| --- | --- |
| COc1cc(OC)cc(-c2cc(O)c3cc4c(cc3n2)OCO4)c1 | active: 0.285 µM |
| CC(C)(CO)N1CCN(C(S)=Nc2ccccc2)CC1 | inactive: > 100 µM |
| CC(C)Oc1cc2c(cc1O)CC[C@@H]1[C@@H]2CC[C@]2(C)[C@@H](O)CC[C@@H]12 | inactive: 10.9 µM |
| CCOC(=O)c1c2c(n(Cc3ccccc3)c1C)C(=O)C(=O)c1ccccc1-2 | active: 0.515 µM |
| OCCN(CCO)c1ncnc2[nH]cnc12 | inactive: > 100 µM |
| CO/N=C(\C)c1ccc(Nc2c3ccccc3nc3occc23)cc1 | inactive: 2.65 µM |
| CCOC(=O)C(=O)Nc1c(CC)cccc1C(C)CC (stereo not given) | inactive: > 100 µM |
| N#Cc1c(NCCc2ccc(F)cc2)c2ccccc2n2c1nc1ccccc12 | inactive: 29.1 µM |
| CC(=O)Nc1ccc(C2=N/C(=C\c3ccc(Cl)c(Cl)c3)C(=O)O2)cc1 | inactive: > 100 µM |
| CC[C@@]1(O)C(=O)OCc2c1cc1n(c2=O)Cc2c-1nc1ccc(O)cc1c2CC[Si](C)(C)C | active: 0.0254 µM |
| CC(=O)O/C=C\OC1CCCC1(c1ccccc1)c1ccccc1 (stereo not given) | inactive: 11.7 µM |
| O=C1Nc2c(Cl)cccc2/C1=N/Nc1ccccc1[N+](=O)[O-] | inactive: 30.8 µM |
| COc1cc2c3c4[n+](cc2c(OC)c1OC)CCC4CCC3 (stereo not given) | inactive: > 100 µM |
| CCN(CC)CC(C)(C)C(=O)/C=C/c1ccc(C)cc1 | inactive: 4.94 µM |
| CCc1cccc(C(C)C)c1N1C(=O)C(=O)C(c2nc3ccccc3s2)C(=O)C1=O | inactive: > 50 µM |
| COc1cc2c(cc1OC)C(=O)/C(=C/c1ccc(N(C)C)cc1)CC2 | inactive: > 10 µM |
| O=c1[c-](-c2ccccc2)[se]c(-c2ccccc2)[n+]1-c1ccccc1 | inactive: 4.08 µM |
| O=C(c1ccsc1)c1nccc2c1cnc1ccccc12 | inactive: > 100 µM |
| CCN(CC)CCNC(=O)c1cccc2cc3ccccc3nc12 | inactive: 6.62 µM |
| CC1=NOC(=O)/C1=C/c1cccc2ccccc12 | inactive: > 100 µM |
| CC1=C(O)C(=O)C[C@]2(C)[C@H]3CC=C4[C@@H]5CC(C)(C)CC[C@@H]5C(=O)[C@H](O)[C@@]4(C)[C@]3(C)CC[C@@H]12 | inactive: > 50 µM |
| C1COCCSC2=C(SCCO1)SC(=C1SC3=C(SCCOCCOCCS3)S1)S2 | inactive: > 100 µM |
| O=C1/C(=C/c2ccc(OC(=O)c3ccccc3)cc2)CCC/C1=C\c1ccc(OC(=O)c2ccccc2)cc1 | inactive: > 100 µM |

| SMILES | GI50 |
| --- | --- |
| N#Cc1ccc(Cc2ccccn2)cc1Cl | inactive: > 100 µM |
| COC1(OC)N=C(N)C2(C#N)C3(C(=O)N(C(C)C)N=C3C)C12C#N (stereo not given) | inactive: > 100 µM |
| COc1ccc(/N=N/c2c(O)ccc3ccccc23)cc1 | inactive: > 100 µM |
| O=c1[nH]nc(-c2ccccc2)n1/N=C/c1c[nH]c2ccccc12 | inactive: > 100 µM |
| CCOc1ccc(NC(=O)CC2SC(N)=NC2=O)cc1 (stereo not given) | inactive: > 100 µM |
| COC(=O)C1CCC2(CC1)NC(=O)NC2=O (stereo not given) | inactive: > 100 µM |
| COc1c(-c2cc(C)c(Cl)c(=O)[nH]2)c(O)c(OC)c2occc12 | inactive: > 100 µM |
| CN(C)c1ccc(/C(F)=C(F)/C(F)=C(F)/C(F)=C(\F)c2ccc(Br)cc2)cc1 | inactive: 29.2 µM |
| CCOC(=O)c1c2ccccc2n2c(N)c(C(N)=O)nnc12 | inactive: 62.4 µM |
| CCOC(=O)c1ccc(/N=C/C=C(\Nc2ccc(C(=O)OCC)cc2)C23CC4CC(CC(C4)C2)C3)cc1 | inactive: 82.4 µM |
| Clc1cc2ncn(C3CCCCO3)c2cc1Cl (stereo not given) | inactive: 96.4 µM |
| C=CC[C@H]1[C@H](O[Si](C)(C)C(C)(C)C)C=CC(=O)[C@@H]1CC(=O)N(Cc1ccccc1)Cc1ccccc1 | inactive: 34 µM |
| Cn1ccnc1C(c1nccn1C)C(C)(C)[N+](=O)[O-] | inactive: > 100 µM |
| CC(=O)NC1(NC(C)=O)C2CC(C1Cc1ccccc1)C(C)(C)C2C (stereo not given) | inactive: > 100 µM |
| Cc1cc([N+](=O)[O-])c(C)c2c1[nH]c1ccc(O)cc12 | inactive: > 100 µM |
| CCCC1C2=C(C(=O)OC2=O)C2C(CC)CC3=C(C(=O)OC3=O)C12 (stereo not given) | inactive: > 100 µM |
| CC(C)(C)c1ccc2c(c1)C#Cc1cc3c(cc1OCCCO2)C#Cc1cc(C(C)(C)C)ccc1OCCCO3 | inactive: > 100 µM |
| CC(C)(C)OC(=O)NC(Cc1ccccc1)OCc1ccccc1 (stereo not given) | inactive: 20.4 µM |
| CC1=C(C(=O)NNC(=O)C(N)=O)CC(C(=O)NNC(=O)C(N)=O)=C(C)N1 | inactive: > 100 µM |
| COc1ccc(C2C(Cl)C(=O)N2NC(=O)c2ccc(N)cc2)cc1 (stereo not given) | inactive: > 100 µM |
| COc1ccc(/C=C/C(=O)c2nc3ccccc3[nH]2)cc1 | inactive: 25.6 µM |
| CCOC(=O)c1cnc2sc3ccc4ccccc4c3n2c1=O | inactive: 58.1 µM |
| C=CCC1(CN(C)C)CC/C(=C\c2ccc(OC)cc2)C1=O (stereo not given) | inactive: > 100 µM |

| SMILES | GI50 |
| --- | --- |
| COc1cccc(N2C(=O)C3c4[nH]c5ccccc5c4C4c5ccccc5CCC4C3C2=O)c1 (stereo not given) | inactive: > 10 µM |
| CCOc1cc2c(cc1O)/C(=N/NS(=O)(=O)c1ccc(C)cc1)C[C@@H]1[C@@H]2CC[C@]2(C)[C@@H](O)CC[C@@H]12 | inactive: 26.9 µM |
| CC12CCC3(OCCO3)C(OC(=O)c3ccccc3)=C1CCC21OCCO1 (stereo not given) | inactive: > 100 µM |
| C#CCOC(=O)C(N)C(C)O (stereo not given) | inactive: > 100 µM |
| COc1cc(/C=C/c2cc(=O)cc(/C=C/c3ccc(O)c(OC)c3)o2)ccc1O | inactive: 38.3 µM |
| Nc1cc(Cl)cc2cc(Cl)cnc12 | inactive: > 100 µM |
| C=CC1=C(C)c2cc3[nH]c(c4c5nc(cc6[nH]c(cc1n2)c(C)c6CC)C=C5C(=O)C4C(=O)OC)C(CCC(=O)OC/C=C(\C)CCCC(C)CCCC(C)CCCC(C)C)C3C.C=CC1=C(C)c2cc3[nH]c(c4c5nc(cc6[nH]c(cc1n2)c(C=O)c6CC)C=C5C(=O)C4C(=O)OC)C(CCC(=O)OC/C=C(\C)CCCC(C)CCCC(C)CCCC(C)C)C3C (stereo not given) | inactive: > 100 µM |
| C=C1c2[nH]c3ccccc3c2C2C(CC)C1CCN2C (stereo not given) | inactive: 67 µM |
| O=C(O)C1(c2ccccc2)CCCNCC1 (stereo not given) | inactive: > 100 µM |
| CC(=O)c1ccc2c(ccc(=O)n2C)c1 | inactive: > 100 µM |
| COc1cc2c(cc1OC)C1(COc3cc(O)c(O)c(O)c3C1=O)C2 (stereo not given) | inactive: > 50 µM |
| COc1ccc(/C(=N/OCCCC(=O)O)c2cccs2)cc1 | inactive: > 100 µM |
| O=[N+]([O-])c1ccc(NN/N=N/c2ccc(-c3nc4ccccc4s3)cc2)c([N+](=O)[O-])c1 | inactive: 23.9 µM |
| Cn1c2c(c3ccccc31)CC(=S)N1CCCC(CC2O)C1 (stereo not given) | inactive: > 100 µM |
| Cc1ccc(C(=O)N/N=C(\N=N\c2ccc(C(=O)O)cc2)c2ccc(N(CCC#N)CCC#N)cc2C)cc1 | inactive: > 100 µM |
| CCOc1ccc(NC(=S)N/C=C(/C(C)=O)C(=O)Nc2ccccc2C)cc1 | inactive: > 100 µM |
| C=C1C(=O)O[C@@H]2[C@@H]3O[C@@H](C[C@@H]13)[C@](C)(O)CC/C=C(\C)CCC[C@@H]2C | inactive: 18.7 µM |
| CC1(C)[N+]([O-])=[N+]([O-])C1(Br)c1ccccc1 (stereo not given) | inactive: > 100 µM |
| Cc1ccc2c(c1CCCC(C)(C)O)C(=O)C(O)=C(C(C)C)C2=O | inactive: 65.3 µM |
| O=C(O)CCSC(=O)Nc1ccccc1F | inactive: > 100 µM |
| O=c1[nH]c2ccc(CC(=S)N3CCN(c4ccccc4)CC3)cc2s1 | inactive: 53.6 µM |
| CCN(CC)CCSc1c2ccccc2nc2cc(NCC(=O)Nc3ccccc3-c3ccccc3NC(=O)CNc3ccc4c(SCCN(CC)CC)c5ccccc5nc4c3)ccc12 | inactive: > 85.1 µM |
| C=C(C)COC1CCCCO1 (stereo not given) | inactive: > 100 µM |

| SMILES | GI50 |
| --- | --- |
| COc1ccc(-c2nc(SCC(=O)NNC(=S)Nc3ccccc3)[nH]c2-c2ccc(OC)cc2)cc1 | inactive: 32 µM |
| CS(=O)(=O)OCCCCOS(=O)(=O)CF | inactive: > 100 µM |
| CCOC(=O)/C(C#N)=C\Sc1ccccc1 | inactive: 23.8 µM |
| Clc1ccc(Nc2nn3c(CCCCCCCCc4nnc5sc(Nc6ccc(Cl)cc6)nn45)nnc3s2)cc1 | inactive: > 100 µM |
| N#Cc1c(-c2ccc(Cl)cc2)[nH]c(=O)n(C2OC(CO)C(O)C(O)C2O)c1=O (stereo not given) | inactive: > 100 µM |
| O=C1NCCCC12CCCNC2=O | inactive: > 100 µM |
| CC(=O)Nc1[nH]c(C#N)nc1C#N | inactive: > 100 µM |
| CCOC(=O)C1=CC(C)(C(=O)OCC)Nc2c(nc(SC)[nH]c2=O)N1 (stereo not given) | inactive: > 10 µM |
| Cc1cc2ncn(C3CCCO3)c2cc1C (stereo not given) | inactive: > 100 µM |
| C[Si](C)(OCCS(=O)(=O)O)C1S(=O)(=O)OCCOS1(=O)=O | inactive: > 100 µM |
| O=S(O)CCCCCSSc1ccc(Cl)cc1 | inactive: 31 µM |
| CCOC(=O)P(=O)(O)c1ccc(N(C)Cc2ccccc2)cc1 | inactive: > 100 µM |
| O=S(=O)(O)c1cc(/N=[N+](\[O-])c2cc(S(=O)(=O)O)c3ccccc3c2)cc2ccccc12 | inactive: 40.6 µM |
| CCN(CC)[C@@H]1c2cc3c(cc2C(c2cc(OC)c(O)c(OC)c2)C2C(=O)CO[C@@H]21)OCO3 (stereo not given in full) | inactive: > 100 µM |
| CCC1(O)C[C@H]2CN(CCCc3c([nH]c4ccccc34)[C@@](C(=O)OC)(c3cc4c(cc3OC)N(C)C3[C@](O)(C(=O)OC)[C@H](OC(C)=O)[C@]5(CC)C=CCN6CC[C@]43[C@H]65)C2)C1 (stereo not given in full) | inactive: 2.71 µM |
| C=CC1[C@H]2COC(C)(C)O[C@@H]2CC(=O)C1(C)C (stereo not given in full) | inactive: > 100 µM |
| O=c1cccc2n1C[C@H]1CNC[C@H]2C1 | inactive: > 100 µM |
| CC(O[Si](c1ccccc1)(c1ccccc1)C(C)(C)C)[C@H](NC(=O)OC(C)(C)C)C(=O)O (stereo not given in full) | inactive: 39.4 µM |
| COC(=O)c1cccc(N[C@@H]2c3cc4c(cc3C(c3cc(OC)c(O)c(OC)c3)[C@H]3C(=O)OCC32)OCO4)c1 (stereo not given in full) | inactive: 9.2 µM |
| CCCCCCCCCCCCCCCC[N+](C)(C)Cc1ccc(C[N+](C)(C)CCCCCCCCCCCCCCCC)cc1 | inactive: 2.94 µM |
| CN(C)c1nc2sc3c(c2c(=O)o1)CCCC3 | inactive: > 100 µM |

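All cell lines were grown in 96-well plates and treated with compound for 48 hours. The concentration for 50% growth inhibition is given as GI50.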 The source made the active and inactive calls. Rule as the data show it: active = GI50 up to about 1.1 µM and inactive = higher.
